Laboratory results from PMC8424649.
No constants are given. Whether binding was seen depends on the method and setting. Binding seen in cells or lysates may run through a third protein. Some results given as binding are weak or reduced against the parent protein; the word gives no strength.

Chains of the proteins cited; added tags and fusions are not shown.
UniProt Q9Y2M0: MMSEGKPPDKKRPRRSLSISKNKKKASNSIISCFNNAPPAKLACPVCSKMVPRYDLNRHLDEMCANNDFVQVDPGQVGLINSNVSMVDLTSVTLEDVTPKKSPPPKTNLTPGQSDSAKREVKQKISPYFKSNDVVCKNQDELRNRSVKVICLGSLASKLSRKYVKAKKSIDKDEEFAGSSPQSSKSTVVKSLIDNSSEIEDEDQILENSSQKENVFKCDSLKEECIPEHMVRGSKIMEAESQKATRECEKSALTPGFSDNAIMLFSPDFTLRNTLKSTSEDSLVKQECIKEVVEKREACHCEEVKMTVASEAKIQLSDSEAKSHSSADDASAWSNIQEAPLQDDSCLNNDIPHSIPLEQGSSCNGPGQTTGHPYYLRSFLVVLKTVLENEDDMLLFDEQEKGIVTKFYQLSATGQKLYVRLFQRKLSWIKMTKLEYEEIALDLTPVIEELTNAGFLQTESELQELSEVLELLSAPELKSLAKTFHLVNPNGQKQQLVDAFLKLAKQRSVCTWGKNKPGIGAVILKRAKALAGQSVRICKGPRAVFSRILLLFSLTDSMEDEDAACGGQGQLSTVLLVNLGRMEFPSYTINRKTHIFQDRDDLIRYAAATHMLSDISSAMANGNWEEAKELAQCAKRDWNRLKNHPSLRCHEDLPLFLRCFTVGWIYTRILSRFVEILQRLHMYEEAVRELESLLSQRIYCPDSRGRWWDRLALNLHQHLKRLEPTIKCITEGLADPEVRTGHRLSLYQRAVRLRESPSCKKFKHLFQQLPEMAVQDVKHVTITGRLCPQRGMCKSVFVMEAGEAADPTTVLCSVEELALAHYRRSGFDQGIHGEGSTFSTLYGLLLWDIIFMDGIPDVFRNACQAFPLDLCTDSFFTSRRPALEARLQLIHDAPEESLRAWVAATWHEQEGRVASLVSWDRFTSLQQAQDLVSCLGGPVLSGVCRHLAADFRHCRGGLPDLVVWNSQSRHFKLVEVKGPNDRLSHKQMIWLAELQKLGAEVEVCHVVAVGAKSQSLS

Experiments:
[1] = molecular target: myc-tagged FAN1^FL (human) (UniProt Q9Y2M0); assay: cross-linking; xIP-MS: myc-FAN1 from HEK293T lysate on anti-c-myc magnetic beads, on-bead cross-linking with 1 mM BS3 d0/d12, 30 min, 37°C, mass spectrometry (xQuest/xProphet)
[2] = molecular target: FAN1 (endogenous, human) (human (endogenous in HD iPSCs, lymphoblastoid cells, MSNs)) (UniProt Q9Y2M0); assay: cross-linking; xIP-MS: endogenous FAN1 from lymphoblastoid cell lysate with sheep FAN1 antibody and protein G magnetic beads, on-bead cross-linking with 1 mM BS3 d0/d12, 30 min, 37°C, mass spectrometry (xQuest/xProphet)
[3] = molecular target: FAN1 (endogenous, human) (human (endogenous in HD iPSCs, lymphoblastoid cells, MSNs)) (UniProt Q9Y2M0); assay: co-IP; endogenous proteins in extracts of HD iPSCs (125 CAG); FAN1 sheep polyclonal or MLH1 monoclonal antibody with protein G magnetic beads; IP buffer 20 mM Tris pH 7.4, 150 mM NaCl, 1 mM EDTA, 1% Triton X-100, Benzonase
[4] = molecular target: GFP-FAN1, full-length FAN1 (FAN1^FL) (human) (UniProt Q9Y2M0); assay: co-IP; GFP-Trap beads on extracts of U2OS cells expressing GFP-FAN1 constructs; endogenous partners detected by blot; IP buffer 20 mM Tris pH 7.4, 150 mM NaCl, 1 mM EDTA, 1% Triton X-100, Benzonase

Measured: binding

B1: PMS2 (endogenous, human) (protein, UniProt P54278 1-862)
chain: MERAESSSTEPAKAIKPIDRKSVHQICSGQVVLSLSTAVKELVENSLDAGATNIDLKLKDYGVDLIEVSDNGCGVEEENFEGLTLKHHTSKIQEFADLTQVETFGFRGEALSSLCALSDVTISTCHASAKVGTRLMFDHNGKIIQKTPYPRPRGTTVSVQQLFSTLPVRHKEFQRNIKKEYAKMVQVLHAYCIISAGIRVSCTNQLGQGKRQPVVCTGGSPSIKENIGSVFGQKQLQSLIPFVQLPPSDSVCEEYGLSCSDALHNLFYISGFISQCTHGVGRSSTDRQFFFINRRPCDPAKVCRLVNEVYHMYNRHQYPFVVLNISVDSECVDINVTPDKRQILLQEEKLLLAVLKTSLIGMFDSDVNKLNVSQQPLLDVEGNLIKMHAADLEKPMVEKQDQSPSLRTGEEKKDVSISRLREAFSLRHTTENKPHSPKTPEPRRSPLGQKRGMLSSSTSGAISDKGVLRPQKEAVSSSHGPSDPTDRAEVEKDSGHGSTSVDSEGFSIPDTGSHCSSEYAASSPGDRGSQEHVDSQEKAPKTDDSFSDVDCHSNQEDTGCKFRVLPQPTNLATPNTKRFKKEEILSSSDICQKLVNTQDMSASQVDVAVKINKKVVPLDFSMSSLAKRIKQLHHEAQQSEGEQNYRKFRAKICPGENQAAEDELRKEISKTMFAEMEIIGQFNLGFIITKLNEDIFIVDQHATDEKYNFEMLQQHTVLQGQRLIAPQTLNLTAVNEAVLIENLEIFRKNGFDFVIDENAPVTERAKLISLPTSKNWTFGPQDVDELIFMLSDSPGVMCRPSRVKQMFASRACRKSVMIGTALNTSEMKKLITHMGEMDHPWNCPHGRPTMRHIANLGVISQN
binds: [1] | [2] | [3] | [4]
